Measured values: the supplement of paper PMC8728848
The other results are listed elsewhere or left out.

Key:
Experiment in all cases: glycan array binding signal (z-score within array); higher = stronger binding
Settings in all cases: glycan notation: IUPAC condensed, linker removed; mutation: W10H
[1] = molecular target: Neu5Ac(a2-3)Gal(b1-4)GlcNAc(b1-2)Man(a1-3)[Neu5Ac(a2-6)Gal(b1-4)GlcNAc(b1-2)Man(a1-6)]Man(b1-4)GlcNAc(b1-4)GlcNAc
How it was run: (§1)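 The binding signal is a Z-score computed within each array and averaged over linkers. Arrays of the same protein sequence at different concentrations or buffers were also averaged together. Data originate from 3228 arrays in the Consortium for Functional Glycomics database, kept only where the protein sequence was available.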

[2] = molecular target: Neu5Ac(a2-3)Gal(b1-4)GlcNAc(b1-2)[Neu5Ac(a2-3)Gal(b1-4)GlcNAc(b1-4)]Man(a1-3)[GlcNAc(b1-4)][Neu5Ac(a2-3)Gal(b1-4)GlcNAc(b1-2)[Neu5Ac(a2-3)Gal(b1-4)GlcNAc(b1-6)]Man(a1-6)]Man(b1-4)GlcNAc(b1-4)GlcNAc
How it was run: as §1

[3] = molecular target: Neu5Ac(a2-3)Gal(b1-4)GlcNAc(b1-2)[Neu5Ac(a2-3)Gal(b1-4)GlcNAc(b1-4)]Man(a1-3)[GlcNAc(b1-4)][Neu5Ac(a2-3)Gal(b1-4)GlcNAc(b1-4)Man(a1-6)]Man(b1-4)GlcNAc(b1-4)GlcNAc
How it was run: as §1

[4] = molecular target: Neu5Ac(a2-3)Gal(b1-4)GlcNAc(b1-2)[Neu5Ac(a2-3)Gal(b1-4)GlcNAc(b1-6)]Man(a1-6)[Neu5Ac(a2-3)Gal(b1-4)GlcNAc(b1-2)Man(a1-3)][GlcNAc(b1-4)]Man(b1-4)GlcNAc(b1-4)GlcNAc
How it was run: as §1

[5] = molecular target: Neu5Ac(a2-3)Gal(b1-4)GlcNAc(b1-3)Gal
How it was run: as §1

[6] = molecular target: Neu5Ac(a2-3)Gal(b1-4)GlcNAc(b1-3)Gal(b1-3)GlcNAc
How it was run: as §1

[7] = molecular target: Neu5Ac(a2-3)Gal(b1-4)GlcNAc(b1-3)Gal(b1-4)GlcNAc
How it was run: as §1

[8] = molecular target: Neu5Ac(a2-3)Gal(b1-4)GlcNAc(b1-3)Gal(b1-4)GlcNAc(b1-2)Man(a1-3)[Neu5Ac(a2-3)Gal(b1-4)GlcNAc(b1-3)Gal(b1-4)GlcNAc(b1-2)Man(a1-6)]Man(b1-4)GlcNAc(b1-4)GlcNAc
How it was run: as §1

[9] = molecular target: Neu5Ac(a2-3)Gal(b1-4)GlcNAc(b1-3)Gal(b1-4)GlcNAc(b1-3)Gal(b1-4)GlcNAc
How it was run: as §1

[10] = molecular target: Neu5Ac(a2-3)Gal(b1-4)GlcNAc(b1-3)Gal(b1-4)GlcNAc(b1-3)Gal(b1-4)GlcNAc(b1-2)Man(a1-3)[Neu5Ac(a2-3)Gal(b1-4)GlcNAc(b1-3)Gal(b1-4)GlcNAc(b1-3)Gal(b1-4)GlcNAc(b1-2)Man(a1-6)]GalNAc
How it was run: as §1

[11] = molecular target: Neu5Ac(a2-3)Gal(b1-4)GlcNAc(b1-3)Gal(b1-4)GlcNAc(b1-3)GalNAc
How it was run: as §1

[12] = molecular target: Neu5Ac(a2-3)Gal(b1-4)GlcNAc(b1-3)Gal(b1-4)GlcNAc(b1-3)[Neu5Ac(a2-3)Gal(b1-4)GlcNAc(b1-3)Gal(b1-4)GlcNAc(b1-6)]GalNAc
How it was run: as §1

[13] = molecular target: Neu5Ac(a2-3)Gal(b1-4)GlcNAc(b1-3)Gal(b1-4)GlcNAc(b1-6)[Gal(b1-3)]GalNAc
How it was run: as §1

[14] = molecular target: Neu5Ac(a2-3)Gal(b1-4)GlcNAc(b1-3)Gal(b1-4)[Fuc(a1-3)]GlcNAc
How it was run: as §1

[15] = molecular target: Neu5Ac(a2-3)Gal(b1-4)GlcNAc(b1-3)GalNAc
How it was run: as §1

[16] = molecular target: Neu5Ac(a2-3)Gal(b1-4)GlcNAc(b1-3)[Neu5Ac(a2-3)Gal(b1-4)GlcNAc(b1-6)]GalNAc
How it was run: as §1

[17] = molecular target: Neu5Ac(a2-3)Gal(b1-4)GlcNAc(b1-6)GalNAc
How it was run: as §1

[18] = molecular target: Neu5Ac(a2-3)Gal(b1-4)GlcNAc(b1-6)[Gal(b1-3)]GalNAc
How it was run: as §1

[19] = molecular target: Neu5Ac(a2-3)Gal(b1-4)GlcNAc(b1-6)[Neu5Ac(a2-3)Gal(b1-3)]GalNAc
How it was run: as §1

[20] = molecular target: Neu5Ac(a2-3)Gal(b1-4)GlcNAc6S
How it was run: as §1

[21] = molecular target: Neu5Ac(a2-3)Gal(b1-4)[Fuc(a1-3)]GlcNAc
How it was run: as §1

[22] = molecular target: Neu5Ac(a2-3)Gal(b1-4)[Fuc(a1-3)]GlcNAc(b1-2)Man
How it was run: as §1

[23] = molecular target: Neu5Ac(a2-3)Gal(b1-4)[Fuc(a1-3)]GlcNAc(b1-3)Gal
How it was run: as §1

[24] = molecular target: Neu5Ac(a2-3)Gal(b1-4)[Fuc(a1-3)]GlcNAc(b1-3)Gal(b1-4)GlcNAc
How it was run: as §1

[25] = molecular target: Neu5Ac(a2-3)Gal(b1-4)[Fuc(a1-3)]GlcNAc(b1-3)Gal(b1-4)[Fuc(a1-3)]GlcNAc(b1-3)Gal(b1-4)[Fuc(a1-3)]GlcNAc
How it was run: as §1

[26] = molecular target: Neu5Ac(a2-3)Gal(b1-4)[Fuc(a1-3)]GlcNAc(b1-3)GalNAc
How it was run: as §1

[27] = molecular target: Neu5Ac(a2-3)Gal(b1-4)[Fuc(a1-3)]GlcNAc(b1-6)[Gal(b1-3)]GalNAc
How it was run: as §1

[28] = molecular target: Neu5Ac(a2-3)Gal(b1-4)[Fuc(a1-3)]GlcNAc(b1-6)[Neu5Ac(a2-3)Gal(b1-3)]GalNAc
How it was run: as §1

[29] = molecular target: Neu5Ac(a2-3)Gal(b1-4)[Fuc(a1-3)]GlcNAc6S
How it was run: as §1

[30] = molecular target: Neu5Ac(a2-3)Gal6S(b1-4)GlcNAc
How it was run: as §1

[31] = molecular target: Neu5Ac(a2-3)Gal6S(b1-4)[Fuc(a1-3)]GlcNAc
How it was run: as §1

Neu5Ac(a2-3)GalNAc = molecular target: Neu5Ac(a2-3)GalNAc
How it was run: as §1

[32] = molecular target: Neu5Ac(a2-3)GalNAc(b1-4)GlcNAc
How it was run: as §1

[33] = molecular target: Neu5Ac(a2-3)[GalNAc(b1-4)]Gal(b1-4)Glc
How it was run: as §1

[34] = molecular target: Neu5Ac(a2-3)[GalNAc(b1-4)]Gal(b1-4)GlcNAc
How it was run: as §1

[35] = molecular target: Neu5Ac(a2-3)[GalNAc(b1-4)]Gal(b1-4)GlcNAc(b1-3)GalNAc
How it was run: as §1

[36] = molecular target: Neu5Ac(a2-3)[Neu5Ac(a2-6)]GalNAc
How it was run: as §1

Neu5Ac(a2-6)Gal = molecular target: Neu5Ac(a2-6)Gal
How it was run: as §1

[37] = molecular target: Neu5Ac(a2-6)Gal(b1-3)GlcNAc(b1-3)[Gal(b1-4)GlcNAc(b1-6)]Gal(b1-4)Glc
How it was run: as §1

Neu5Ac(a2-6)Gal(b1-4)Glc = molecular target: Neu5Ac(a2-6)Gal(b1-4)Glc
How it was run: as §1

[38] = molecular target: Neu5Ac(a2-6)Gal(b1-4)GlcNAc
How it was run: as §1

[39] = molecular target: Neu5Ac(a2-6)Gal(b1-4)GlcNAc(b1-2)Man
How it was run: as §1

[40] = molecular target: Neu5Ac(a2-6)Gal(b1-4)GlcNAc(b1-2)Man(a1-3)Man(b1-4)GlcNAc(b1-4)GlcNAc
How it was run: as §1

[41] = molecular target: Neu5Ac(a2-6)Gal(b1-4)GlcNAc(b1-2)Man(a1-3)[Gal(b1-4)GlcNAc(b1-2)Man(a1-6)]Man(b1-4)GlcNAc(b1-4)GlcNAc
How it was run: as §1

[42] = molecular target: Neu5Ac(a2-6)Gal(b1-4)GlcNAc(b1-2)Man(a1-3)[GlcNAc(b1-2)Man(a1-6)]Man(b1-4)GlcNAc(b1-4)GlcNAc
How it was run: as §1

B1: Banana lectin (Musa acuminata) (protein)
chain: MNGAIKVGAHGGNGGSAFDMGPAYRIISVKIFSGDVVDGVDVTFTYYGKTETRHYGGSGGTPHEIVLQEGEYLVGMAGEVANYHGAVVLGKLGFSTNKKAYGPFGNTGGTPFSLPIAAGKISGFFGRGGKFLDAIGVYLEPLEHHHHHH
glycan array binding signal (z-score) [1]: -0.153
glycan array binding signal (z-score) [2]: -0.171
glycan array binding signal (z-score) [3]: -0.161
glycan array binding signal (z-score) [4]: -0.114
glycan array binding signal (z-score) [5]: -0.183
glycan array binding signal (z-score) [6]: -0.197
glycan array binding signal (z-score) [7]: -0.154
glycan array binding signal (z-score) [8]: -0.168
glycan array binding signal (z-score) [9]: -0.143
glycan array binding signal (z-score) [10]: -0.056
glycan array binding signal (z-score) [11]: -0.169
glycan array binding signal (z-score) [12]: -0.166
glycan array binding signal (z-score) [13]: -0.196
glycan array binding signal (z-score) [14]: -0.192
glycan array binding signal (z-score) [15]: -0.158
glycan array binding signal (z-score) [16]: -0.134
glycan array binding signal (z-score) [17]: -0.165
glycan array binding signal (z-score) [18]: -0.183
glycan array binding signal (z-score) [19]: -0.141
glycan array binding signal (z-score) [20]: -0.212
glycan array binding signal (z-score) [21]: -0.196
glycan array binding signal (z-score) [22]: -0.192
glycan array binding signal (z-score) [23]: -0.157
glycan array binding signal (z-score) [24]: -0.111
glycan array binding signal (z-score) [25]: -0.199
glycan array binding signal (z-score) [26]: -0.167
glycan array binding signal (z-score) [27]: -0.169
glycan array binding signal (z-score) [28]: -0.144
glycan array binding signal (z-score) [29]: -0.176
glycan array binding signal (z-score) [30]: -0.172
glycan array binding signal (z-score) [31]: -0.184
glycan array binding signal (z-score) (Neu5Ac(a2-3)GalNAc): -0.199
glycan array binding signal (z-score) [32]: -0.13
glycan array binding signal (z-score) [33]: -0.173
glycan array binding signal (z-score) [34]: -0.147
glycan array binding signal (z-score) [35]: -0.16
glycan array binding signal (z-score) [36]: -0.176
glycan array binding signal (z-score) (Neu5Ac(a2-6)Gal): -0.145
glycan array binding signal (z-score) [37]: -0.185
glycan array binding signal (z-score) (Neu5Ac(a2-6)Gal(b1-4)Glc): -0.191
glycan array binding signal (z-score) [38]: -0.191
glycan array binding signal (z-score) [39]: -0.149
glycan array binding signal (z-score) [40]: -0.165
glycan array binding signal (z-score) [41]: -0.122
glycan array binding signal (z-score) [42]: -0.134
